Assay results as given in PubChem BioAssay AID1345082 (National Center for Advancing Translational Sciences (NCATS), 2018).
About 4,000 (4.3%) of roughly 94,000 compounds were called active. Inconclusive means that the source gave no clear call. Such entries were picked first, then a sample of the others. The call rests on the fitted dose curve; in most records, active means well fitted inhibition curve with a large enough effect; inconclusive means small, poorly fitted or top-dose-only effect; inactive means no such curve, though single readings can be large or run the other way. Potencies of inconclusive entries are doubtful fits and often do not repeat.

Experiment: Cytotoxic Profiling in NIH 3T3 Cell Line of Diverse Libraries Using Quantitative High-Throughput Screening; further: nearly all actives have a fitted effect of over 55% in size
Conditions: NIH 3T3 viability, CellTiter-Glo ATP luminescence, 48-72 h; activity change, negative = cytotoxicity: at 96.7 µM (top of the series) unless noted; series mostly up to 96.7 µM
Outline: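 Cells were seeded at 400 per well, treated with pin-transferred compound, and kept 48 or 72 hr at 37 °C before CellTiter-Glo addition and luminescence imaging of cellular ATP.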
On the % scale 0 is the no-effect control and ±100 the full control effect; potency means the concentration at half of the fitted maximal effect; tags describe the fitted curve by direction and shape.

Compound | activity change, negative = cytotoxicity | Potency | outcome
O=C(NCc1cccc(F)c1)c1cc(-c2cccc(C(F)(F)F)c2)c2nncn2n1 | inactive: -17.6% | – | –
CCCN1CCc2nc(C(=O)Nc3nc(C)cs3)oc2CC1 | inactive: -22.9% [at 138 µM] | – | –
O=C(CCC1CCN(c2cc(NC3CC3)ncn2)CC1)NCc1ccc(F)cc1F | – | inconclusive: 50.1 µM [inhibitor, single point] | –
COc1ccccc1N1CCN([C@@H]2[C@H](O)[C@H](CO)O[C@@H]2CNC(=O)Nc2ccccc2)CC1 | – | – | inactive
O=C(NCCc1ccccc1)C1CN(C2CCCC2)C(=O)N1 (stereo not drawn) | inactive: -6.75% [at 138 µM] | – | –
Cc1cc(=O)n(CC(=O)Nc2ccc(Br)cc2)c(N2CCc3ccccc3C2)n1 | – | inconclusive: 79.4 µM [inhibitor, partial curve, poor fit] | –
Cc1ccc(CNC(=O)CN2CCCc3nc(C4CC4)ncc3C2=O)cc1 | inactive: -25.2% | – | –
COc1cccc(-c2c(C(=O)NC3CCCCC3)nc3sccn23)c1 | – | inconclusive: 50.1 µM [inhibitor, partial curve, poor fit] | –
OCc1ccc(CN2C[C@H](O)C[C@H]2c2nc(-c3cccnc3)no2)o1 | inactive: -2.73% [at 174 µM] | – | –
COc1ccc(Nc2ccc3ncn(-c4ccccc4)c(=O)c3n2)cn1 | – | active: 100 µM | –
O=C([C@H]1C[C@H](Oc2ccccc2)CN1C(=O)COc1ccc(F)cc1)N1CCOCC1 | inactive: 2.58% | – | –
Cc1nn2c(c1-c1ccccc1C(N)=O)N(CCCc1ccccc1)CCC2 | – | active: 11.2 µM | –
COc1ccc(CNC(=O)C[C@@H]2C[C@@H](C(C)C)[C@H](CNC(=O)c3ccc(C#N)cc3)C=C2C)cc1 | – | inconclusive: 25.1 µM [inhibitor, partial curve, poor fit] | –
COc1cccc(C(=O)N2CCC3(CC2)NC(=O)N(c2ccc(F)cc2)N3)c1OC | – | inconclusive: 35.5 µM [inhibitor, partial curve] | –
Cc1cccc(-c2ocnc2C(=O)N2C[C@@H](Oc3ccccc3)C[C@H]2C(=O)N2CCCC2)c1 | inactive: -28% | – | –
CC(CCc1ccccc1)NC(=O)CN1C(=O)C(c2ccccc2)=NC1(C)C (stereo not drawn) | – | inconclusive: 50.1 µM [inhibitor, partial curve, poor fit] | –
CC(=O)Nc1cccc(-c2nc(-c3c(C)noc3C)cc3c2cc(-c2ccccc2)n3C)c1 | – | active: 11.2 µM | –
COc1ccccc1CCN1Cc2cc(NC(=O)Cc3cccs3)ccc2OC(C)C1=O (stereo not drawn) | – | inconclusive: 50.1 µM [inhibitor, partial curve, poor fit] | –
COc1cc(-c2onc(C)c2C(=O)NCCCCc2ccccc2)cc(OC)c1OC | – | inconclusive: 44.7 µM [inhibitor, partial curve, poor fit] | –
Cc1ccc(CNC(=O)c2ccc3c(c2)CN(Cc2ccc(C)o2)CCO3)cc1 | – | inconclusive: 50.1 µM [inhibitor, partial curve, poor fit] | –
CNC(=O)c1cc(-c2ccnc(NC(C)=O)c2)cc2c1OCCN2Cc1cccnc1 | – | inconclusive: 63.1 µM [inhibitor, partial curve, poor fit] | –

Compound | activity change, negative = cytotoxicity | Potency | outcome
O=C(C1CCN(c2nccc(Nc3ccccc3Cl)n2)CC1)N1CCCCC1 | – | inconclusive: 44.7 µM [inhibitor, partial curve, poor fit] | –
O=C(CCCc1nc2ccccc2s1)N1CCc2nc3cc(-c4ccccc4)[nH]n3c(=O)c2C1 | – | inconclusive: 50.1 µM [inhibitor, single point] | –
OCCN1CCN(c2ccc(-c3nc(-c4cccc(C(F)(F)F)c4)no3)cn2)CC1 | – | active: 25.1 µM | –
Cn1ccnc1CN[C@@H]1CO[C@H](CNC(=O)CC(C)(C)C)[C@H]1O | inactive: -9.11% [at 174 µM] | – | –
N#Cc1cccc(CN2CCOC[C@H]2c2ncc(-c3ccc(C(F)(F)F)cc3)[nH]2)c1 | – | inconclusive: 70.8 µM [inhibitor, partial curve] | –
O=C(NCc1ccccc1)N1CC(Oc2cccc(-c3nc(-c4ccccc4)no3)c2)C1 | – | inconclusive: 14.1 µM [inhibitor, full curve, poor fit] | –
CC1(C(=O)N2CCOc3c(O)cc(-c4cccc(Cl)c4)cc3C2)CCCO1 (stereo not drawn) | – | inconclusive: 50.1 µM [inhibitor, partial curve, poor fit] | –
Cc1ccccc1-c1[nH]nc2ncc(-c3cccc(F)c3)nc12 | – | inconclusive: 56.2 µM [inhibitor, partial curve, poor fit] | –
CC1(CNc2ccccc2)COc2ccc(C(=O)Nc3ccc4[nH]ccc4c3)cc2N1 (stereo not drawn) | – | active: 39.8 µM | –
c1ccc(-c2nc3c(c(NCC4OCCc5ccccc54)n2)CCNCC3)nc1 (stereo not drawn) | – | active: 79.4 µM | –
CCc1ccc(NC(=O)Cn2c(N3CCC(C)CC3)nc(C)cc2=O)cc1 | – | inconclusive: 31.6 µM [inhibitor, partial curve] | –
Cn1c(=O)n([C@H]2CCCN(C(=O)Nc3ccc4c(c3)OCCO4)C2)c2ncccc21 | inactive: -20.4% | – | –
COCC1CN(S(=O)(=O)c2ccc(F)c(Cl)c2)CC12CCNCC2 (stereo not drawn) | – | inconclusive: 50.1 µM [inhibitor, single point] | –
COc1cc(CNC(=O)c2ccc3c(c2)NC(C)(CNc2ccccc2)CO3)cc(OC)c1 (stereo not drawn) | – | inconclusive: 28.2 µM [inhibitor, full curve, poor fit] | –
COCC1CN(C2CCC2)CC12CCN(Cc1cccc(OC)c1OC)CC2 (stereo not drawn) | – | inconclusive: 50.1 µM [inhibitor, partial curve, poor fit] | –
CCc1cc(NCc2nc(-c3ccncc3)n[nH]2)n2nc(C)c(C)c2n1 | – | inconclusive: 28.2 µM [inhibitor, full curve, poor fit] | –
C#CCNC(=O)C1CCCCN1Cc1ccc(-c2cccs2)cc1 (stereo not drawn) | – | inconclusive: 35.5 µM [inhibitor, partial curve, poor fit] | –
O=C(Nc1ccc2c(c1)OCO2)C1CC(=O)N(c2n[nH]c3cc(Br)ccc23)C1 (stereo not drawn) | inactive: -23.5% | – | –
Cc1oc2c(c1C(=O)N(C)C)CN(C(=O)CCc1ccccc1)CC2 | inactive: -12.3% | – | –
O=C(c1ccccc1F)N1CCC2(CC1)CC(N(Cc1ccccc1)C1CC1)CCO2 (stereo not drawn) | – | inconclusive: 50.1 µM [inhibitor, partial curve, poor fit] | –
Cc1nc(C2CC(O)C2)cc(N2CCN(c3nc4ccccc4s3)CC2)n1 (stereo not drawn) | – | inconclusive: 22.4 µM [inhibitor, full curve, poor fit] | –

Compound | activity change, negative = cytotoxicity | Potency | outcome
CCOc1ccc(CCCC(=O)N2CC[C@@](C)(O)[C@@H](O)C2)cc1C | – | inconclusive: 39.8 µM [inhibitor, partial curve, poor fit] | –
O=S(=O)(c1ccccc1)N1CCC(c2nc(CCOCC3CC3)no2)C1 (stereo not drawn) | – | inconclusive: 79.4 µM [inhibitor, single point] | –
COc1ccc(CCNC(=O)c2cc(-c3cccc(F)c3)nc3c2cnn3C)cc1 | – | inconclusive: 50.1 µM [inhibitor, partial curve, poor fit] | –
O=C1OC2(CN1CC1CCOCC1)CN(C(=O)c1ccc(Oc3ccccc3)cc1)C2 | – | inconclusive: 56.2 µM [inhibitor, partial curve, poor fit] | –
Cc1cc(C)cc(NC(=O)Cn2c(-c3cnccn3)nc(C)c(C)c2=O)c1 | – | inconclusive: 50.1 µM [inhibitor, partial curve, poor fit] | –
CCc1c(C)nn(CCNC(=O)c2cc(S(N)(=O)=O)ccc2F)c1C | – | – | inactive
COc1ccc(CN2CCCCC23Cc2ccccc2CNC3=O)c(OC)c1 (stereo not drawn) | inactive: -13% | – | –
O=C(Cc1ccsc1)N1CCC(n2cc(-c3nc(-c4ccccc4)no3)nn2)CC1 | – | inconclusive: 44.7 µM [inhibitor, partial curve, poor fit] | –
Cc1cc(Cl)ccc1S(=O)(=O)N1CCCC(Cn2c(C)nc3cccnc32)C1 (stereo not drawn) | – | active: 11.2 µM | –
Cc1cn2nc(C(=O)Nc3ccc(F)cc3C)cc2c(N2CCSCC2)n1 | – | inconclusive: 50.1 µM [inhibitor, partial curve, poor fit] | –
CCc1nc(NC(=O)C2c3ccccc3C(=O)N(CCOC)C23CCCC3)sc1C (stereo not drawn) | – | inconclusive: 44.7 µM [inhibitor, partial curve, poor fit] | –
CN1C(=O)CC(C(=O)O)C12CCN(Cc1cnn(-c3ccc(F)cc3)c1)CC2 (stereo not drawn) | inactive: 0.346% | – | –
Cn1cc(-c2ccccc2Oc2ccccc2)c2nc(CO)cn2c1=O | – | inconclusive: 89.1 µM [inhibitor, partial curve, poor fit] | –
COc1cc(-c2[nH]ncc2CN2CCCCC2c2nccs2)cc(OC)c1OC (stereo not drawn) | – | inconclusive: 50.1 µM [inhibitor, partial curve, poor fit] | –
Cc1ccccc1C(=O)N1CCC2(CC1)N=C(c1ccc(Br)cc1)NO2 | – | inconclusive: 70.8 µM [inhibitor, single point] | –
COc1cc(CN2CCC(C)(NC(C)=O)CC2)cc(-c2ccc3[nH]ncc3c2)c1 | – | inconclusive: 89.1 µM [inhibitor, partial curve] | –
N#Cc1cccc(C(=O)N2CCC(N3C[C@H](Oc4ccccc4)[C@@H]3c3ccncc3)CC2)c1 | – | inconclusive: 70.8 µM [inhibitor, single point] | –
CC(C)(C)NC(=O)N1CCCCCCNC(=O)[C@@H]2C[C@@H](c3nc(-c4cccnc4)no3)C[C@@H]21 | inactive: -22.6% | – | –
c1ccc(CN2CCNc3cc(-c4ccoc4)ncc3C2)cc1 | – | inconclusive: 79.4 µM [inhibitor, partial curve] | –
COC(=O)C1=C(C)N(Cc2cccc([N+](=O)[O-])c2)C(=O)CC1c1ccccc1Cl (stereo not drawn) | inactive: -1.07% | – | –
COc1cccc(C(=O)NC2CCN(Cc3cccc(-c4cccc(C)c4)c3)CC2)c1 | – | inconclusive: 56.2 µM [inhibitor, partial curve, poor fit] | –
